The text below walks through data of a collection of fitness landscapes (doi:10.1126/science.1257360).

Some of the results follow. Where only a bound is given, the exact number is not on record here.

To fix the notation:
B1: PhoQ; a variant is named by its letters at X, in order, P23837 (parent)
chain: MKKLLRLFFPLSLRVRFLLATAAVVLVLSLAYGMVALIGYSVSFDKTTFRLLRGESNLFYTLAKWENNKLHVELPENIDKQSPTMTLIYDENGQLLWAQRDVPWLMKMIQPDWLKSNGFHEIEADVNDTSLLLSGDHSIQQQLQEVREDDDDAEMTHSVAVNVYPATSRMPKLTIVVVDTIPVELKSSYMVWSWFIYVLSANLLLVIPLLWVAAWWSLRPIEALAKEVRELEEHNRELLNPATTRELTSLVRNLNRLLKSERERYDKYRTTLTDLTHSLKTPLXXLQXXLRSLRSEKMSVSDAEPVMLEQISRISQQIGYYLHRASMRGGTLLSRELHPVAPLLDNLTSALNKVYQRKGVNISLDISPEISFVGEQNDFVEVMGNVLDNACKYCLEFVEISARQTDEHLYIVVEDDGPGIPLSKREVIFDRGQRVDTLRPGQGVGLAVAREITEQYEGKIVAGESMLGGARMEVIFGRQHSAPKDE

This assay covers variants of B1. Kind of assay: enrichment ratio after two sorts for PhoP signalling (ratio (wild type AVST 3.29)); higher = more functional. The following applies: with PhoP (E. coli).
With NLAW, the enrichment ratio was at most 0.25.
For the variant VSTY, the enrichment ratio is at most 0.25.
Regarding GSWW, the enrichment ratio is at most 0.25.
With KDHK the figure was at most 0.25; with LMRT, at most 0.25; with NQLE, at most 0.25.
With QDMF the figure was at most 0.25; with NVLR, at most 0.25; with PHCC, at most 0.25.
On to RCWP, for which the enrichment ratio was at most 0.25.
For APIE the value was at most 0.25; for GVYI, at most 0.25; for FVVG, at most 0.25.
Regarding NTIY, the enrichment ratio was at most 0.25.
With EACN the figure was at most 0.25.
For the variant EGRI, the enrichment ratio was at most 0.25.
With YEKE the figure was at most 0.25.
For AGWF the value was at most 0.25; for QKLM, at most 0.25; for TTWP, at most 0.25.
For HHSH the value was at most 0.25; for NSRW, at most 0.25; for VWVV, at most 0.25.
For the variant KVIF, the enrichment ratio was at most 0.25.
With PQHA the figure was at most 0.25; with TKFD, at most 0.25.
For QRAM the value was at most 0.25.
On to STVG, for which the enrichment ratio came out at 9.89.
Take IYAR: the enrichment ratio is at most 0.25.
Consider SDCF, for which the enrichment ratio is at most 0.25.
With DNRF the figure was at most 0.25; with ETCI, at most 0.25.
As for NSTE, the enrichment ratio was at most 0.25.
Regarding KFNR, the enrichment ratio was at most 0.25.
For SCTN, the enrichment ratio stood at 6.66.
With RYRC the figure was at most 0.25; with AFPH, at most 0.25; with HDEY, at most 0.25.
Consider LSCY, for which the enrichment ratio is at most 0.25.
For YPCQ the value was at most 0.25; for DCYH, at most 0.25; for GFWV, at most 0.25.
Take PAQM: the enrichment ratio was at most 0.25.
For KESQ, the enrichment ratio is at most 0.25.
For TCNP the value was at most 0.25; for IKRC, at most 0.25; for SSDY, at most 0.25.
On to YWHG, for which the enrichment ratio is at most 0.25.
As to MRIV, the enrichment ratio is at most 0.25.
For AFFY the value was at most 0.25.
On to SMMF, for which the enrichment ratio amounted to 8.81.
Consider ERIH, for which the enrichment ratio is at most 0.25.
Take VALQ: the enrichment ratio came out at 9.9.
With LVAN the figure was at most 0.25; with IEWM, at most 0.25.
With SVKD the figure was at most 0.25.
For WPRR the value was at most 0.25.
With HLAS, the enrichment ratio was at most 0.25.
For YSHS the value was at most 0.25; for LIDH, at most 0.25.
For the variant VVQI, the enrichment ratio is at most 0.25.
With DYMQ the figure was at most 0.25; with YYME, at most 0.25.
With LCSW the figure was at most 0.25; with DNTG, at most 0.25; with FCYF, at most 0.25.
With PEFV the figure was at most 0.25.
GKCT: the enrichment ratio is at most 0.25.
Take HWKG: the enrichment ratio is at most 0.25.
As for SDEM, the enrichment ratio is at most 0.25.
For GYTY the value was at most 0.25.
Regarding NIKT, the enrichment ratio is at most 0.25.
For LSHI the value was 4.24.
In the case of HTWK, the enrichment ratio was at most 0.25.
ILEM: the enrichment ratio was at most 0.25.
For GQNS the value was at most 0.25; for QKKM, at most 0.25.
For IPES the value was at most 0.25; for FNYL, at most 0.25; for QKNN, at most 0.25.
For KKPY the value was at most 0.25; for HCGG, at most 0.25.
Consider MSVW, for which the enrichment ratio was at most 0.25.
With ESWL the figure was at most 0.25; with DLPL, at most 0.25.
With RMHM the figure was at most 0.25.
With LTLQ, the enrichment ratio stood at 2.15.
With MDFE the figure was at most 0.25; with VGEY, at most 0.25.
For PYLV the value was at most 0.25.
For TFST the value was 0.983.
Take PRPR: the enrichment ratio is at most 0.25.
For the variant FYDI, the enrichment ratio was at most 0.25.
With RFIG the figure was at most 0.25.
With DLDC the figure was at most 0.25; with WNIV, at most 0.25; with KIPC, at most 0.25.
For VGDT the value was at most 0.25; for KQFC, at most 0.25.
RDAD: the enrichment ratio is at most 0.25.
TWRW: the enrichment ratio is at most 0.25.
With HHSS, the enrichment ratio was at most 0.25.
Regarding KLGV, the enrichment ratio was at most 0.25.
For RFID the value was at most 0.25; for VYCD, at most 0.25; for NGKV, at most 0.25.
For YWHT the value was at most 0.25.
As for YVVM, the enrichment ratio was at most 0.25.
With YKTT the figure was at most 0.25; with EASL, at most 0.25; with GWWC, at most 0.25.
With LDNQ the figure was at most 0.25; with WAQR, at most 0.25; with KMFQ, at most 0.25.
With PAAC the figure was at most 0.25; with YGRA, at most 0.25; with VYDH, at most 0.25.
In the case of YDFQ, the enrichment ratio is at most 0.25.
For the variant EANL, the enrichment ratio was at most 0.25.
With MPGL, the enrichment ratio is at most 0.25.
For TVIE the value was at most 0.25; for RMYA, at most 0.25.
With LCGK the figure was at most 0.25.
With HCIM the figure was at most 0.25; with QYTM, at most 0.25; with KGAM, at most 0.25.
On to NTIK, for which the enrichment ratio was at most 0.25.
With MTWH the figure was 3.91; with NCSP, at most 0.25; with IMLY, at most 0.25.
For GHAR the value was at most 0.25.
SICP: the enrichment ratio worked out at 0.378.
Consider HMTW, for which the enrichment ratio was determined as 5.85.
Regarding YNLT, the enrichment ratio was at most 0.25.
As to WLCW, the enrichment ratio is at most 0.25.
Consider YNCS, for which the enrichment ratio was at most 0.25.
For HFER the value was at most 0.25; for LDVG, at most 0.25.
As for EDRT, the enrichment ratio was at most 0.25.
MFCM: the enrichment ratio is at most 0.25.
With LNAS the figure was at most 0.25; with TFGE, at most 0.25.
With PVPI the figure was at most 0.25; with WTMH, at most 0.25.
NSMY: the enrichment ratio was at most 0.25.
Turning to NYEW, the enrichment ratio was at most 0.25.
For FNCF the value was 0.767; for AYKN, 6.25.
In the case of ACGW, the enrichment ratio is 4.09.
For VIWW the value was at most 0.25.
With WCYT the figure was at most 0.25; with FVHM, at most 0.25.
As to INME, the enrichment ratio is at most 0.25.
